Laboratory results reported in PubChem BioAssay AID1347055 (National Center for Advancing Translational Sciences (NCATS), 2019).
Several values for one entry are separate records, joined by “and”; a condition that tells them apart may be missing. Identical values can stand only once. Among all 54,000 compounds or so, about 120 (0.22%) were called active. Inconclusive results, whose numbers are uncertain, are shown with a selection of clear calls. Calls come from the whole dose curve; as a rule, active = well fitted inhibition curve with a large enough effect; inconclusive = small, poorly fitted or top-dose-only effect, or effect the other way; inactive = flat fitted curve, though single readings scatter. Potencies of inconclusive entries are doubtful fits and often do not repeat.
% is set by controls: 0 for no effect and ±100 for the full control effect; potency is the fitted concentration of half-maximal effect; tags give direction and shape of the fitted curve.
Note: the screen sought activators but most active calls are inhibition curves; nearly all actives have a fitted effect of over 45% in size.

Each compound was assayed against Fumarate hydratase, mitochondrial (Homo sapiens) (UniProt P07954) (assay: Identification of activators of human fumarate hydratase by quantitative high-throughput screening). Settings: FH coupled MDH/diaphorase resazurin fluorescence, 15 min; activity change, negative = inhibition: at 79.9 µM (top of the series).
UniProt P07954, sequence (P07954 whole entry, looked up): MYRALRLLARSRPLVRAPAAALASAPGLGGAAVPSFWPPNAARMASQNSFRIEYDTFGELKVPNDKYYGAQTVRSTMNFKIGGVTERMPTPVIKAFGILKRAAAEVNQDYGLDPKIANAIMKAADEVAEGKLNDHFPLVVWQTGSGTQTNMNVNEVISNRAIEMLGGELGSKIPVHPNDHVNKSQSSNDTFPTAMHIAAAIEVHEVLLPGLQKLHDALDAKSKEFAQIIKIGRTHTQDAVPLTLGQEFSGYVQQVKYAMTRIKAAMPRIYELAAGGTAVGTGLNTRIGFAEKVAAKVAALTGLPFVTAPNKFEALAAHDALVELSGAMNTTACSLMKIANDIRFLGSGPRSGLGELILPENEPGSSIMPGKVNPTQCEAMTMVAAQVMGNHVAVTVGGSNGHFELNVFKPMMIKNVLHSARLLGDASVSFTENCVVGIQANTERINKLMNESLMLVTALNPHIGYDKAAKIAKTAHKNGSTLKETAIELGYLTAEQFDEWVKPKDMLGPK
`COc1cc(OC)c(NC(=O)CCS(=O)(=O)c2ccc3c(c2)oc(=O)n3C)cc1Cl` was tested, and the Potency was inconclusive: 11.2 µM [inhibitor, partial curve]. `O=C(O)C1=NC(C(=O)O)CC(C=CN2c3cc(O)c(OC4OC(CO)C(O)C(O)C4O)cc3CC2C(=O)O)=C1` (stereo not given) was tested, and the “activity change, negative = inhibition” value was inactive: 1.65% [at 53.3 µM]. For `COc1ccc(NC(=O)c2ccco2)cc1NC(=O)C(C)(C)Oc1ccc(Cl)cc1`, the Potency was inconclusive: 25.1 µM [inhibitor, partial curve, poor fit]. In the case of `CCc1ccc(-n2nc(C)c3c(C(=O)N4CCN(c5ccccc5)CC4)cc(C)nc32)cc1`, the Potency is reported as inconclusive: 31.6 µM [inhibitor, partial curve, poor fit]. For `CCOc1ccc(CNC(=O)C2CCCN(c3nnc(C)c4c(C)n(-c5ccccc5)nc34)C2)cc1` (stereo not given), the Potency was inconclusive: 17.8 µM [inhibitor, partial curve, poor fit]. In the case of `CN(Cc1ccccc1)C(=O)c1ccc(CSc2nc3cccnc3n2Cc2ccccc2F)cc1`, the Potency is reported as inconclusive: 28.2 µM [inhibitor, partial curve, poor fit]. With `CCN(CC)c1cc(C)c2cc(NC(=O)/C=C/c3cc(OC)c(OC)c(OC)c3)ccc2n1` the Potency was inconclusive: 28.2 µM [inhibitor, single point]. With `CN1C[C@H]2c3ccccc3Oc3ccc(Cl)cc3[C@@H]2C1` the Potency was “inactive”. With `Cc1ccc(-n2ncc3c(Nc4cccc(Cl)c4)ncnc32)c(C)c1` the Potency was inconclusive: 39.8 µM [inhibitor, single point]. In the case of `O=C(CSc1nccn1Cc1ccc(Cl)cc1)Nc1nc2ccccc2s1`, the “activity change, negative = inhibition” value is reported as inactive: -21.9%. With `COCCCNC(=O)c1cc2c(-c3cccc(OC)c3)nn(C)c2s1` the Potency was inconclusive: 35.5 µM [inhibitor, single point]. For `O=C1NC(=O)/C(=C/c2ccc3nccnc3c2)S1`, the “activity change, negative = inhibition” value was inactive: -19.1% [at 53.3 µM]. For `CCc1ccc(NC(=O)CSc2nc3c(c(=O)[nH]2)CN(Cc2ccc4c(c2)OCO4)CC3)cc1`, the Potency was inconclusive: 39.8 µM [inhibitor, single point]. With `Cc1ccc(-c2nnc(Nc3cccc(Cl)c3)c3ccccc23)cc1S(=O)(=O)N1CCN(C)CC1` the Potency was inconclusive: 50.1 µM [inhibitor, single point]. In the case of `Cc1ccc(Cn2c(SCc3ccc(C(=O)N4CCCCC4)cc3)nc3ccncc32)cc1`, the “activity change, negative = inhibition” value is reported as inactive: -0.272%. `COc1ccc(NC(=O)CSc2oc(-c3cccs3)nc2S(=O)(=O)c2ccccc2)c(OC)c1` was tested, and the Potency was inconclusive: 11.2 µM [inhibitor, partial curve, poor fit]. For `COc1ccccc1/C=C/c1nc(C#N)c(NC2CCCCC2)o1`, the Potency was inconclusive: 31.6 µM [inhibitor, single point]. For `COc1ccc(C(=O)NCCn2cc(SCc3ccc(C(F)(F)F)cc3)c3ccccc32)cc1OC`, the Potency was inconclusive: 35.5 µM [inhibitor, partial curve, poor fit]. In the case of `Cc1cccc(NC(=O)CSC2=Nc3ccccc3C3=NC(CC(=O)NCc4cccs4)C(=O)N23)c1` (stereo not given), the activity change, negative = inhibition is reported as inconclusive: -32.6% [inhibitor]. `CCc1cccc(NS(=O)(=O)c2ccc3c(c2)CC(C)N3C(=O)C2CC2)c1` (stereo not given) was tested, and the Potency was inconclusive: 35.5 µM [inhibitor, partial curve, poor fit]. `Cn1c(=O)c2sccc2n2c(CCCC(=O)Nc3ccc(Oc4ccccc4)cc3)nnc12` was tested, and the Potency was inconclusive: 39.8 µM [inhibitor, partial curve, poor fit]. With `COc1ccc(NC(=O)c2ccc(-c3nc(CSc4ccc(C)cc4)c(C)o3)cc2)cc1Cl` the “activity change, negative = inhibition” value was inactive: -8.48%. `COc1ccccc1C(=O)Oc1c(Sc2ccccc2)c(C)nn1C(C)(C)C` was tested, and the “activity change, negative = inhibition” value was inactive: -40.2%. In the case of `COc1ccc(-c2[nH]c(-c3cccc(OC)c3)nc2SCC(=O)Nc2ccc3c(c2)OCO3)cc1`, the Potency is reported as inconclusive: 25.1 µM [inhibitor, partial curve]. With `CCOC(=O)c1ccccc1NC(=O)C1CCN(c2ncnc3c2nc2n3CCCCC2)CC1` the Potency was inconclusive: 35.5 µM [inhibitor, single point]. In the case of `Cc1cccc(C)c1Nc1c(-c2ccccc2F)nc2cccc(C)n12`, the Potency is reported as inconclusive: 31.6 µM [inhibitor, single point]. In the case of `CCOC(=O)c1ccc(N2C(=O)c3[nH]nc(-c4ccc(C)cc4)c3C2c2cccc(F)c2)cc1` (stereo not given), the Potency is reported as inconclusive: 17.8 µM [inhibitor, partial curve]. `Cc1c(Cl)cccc1NC(=O)c1cccc(NC(=O)N2CCSc3ncccc32)c1` was tested, and the “activity change, negative = inhibition” value was inactive: -7.79%. `COc1ccc(C2c3c(n(C)c4ccccc34)C(=O)N2CC(=O)Nc2ccc(C)c(Cl)c2)cc1` (stereo not given) was tested, and the Potency was inconclusive: 44.7 µM [inhibitor, single point]. In the case of `CCn1c(=O)sc2cc(NS(=O)(=O)c3ccc(F)c(C)c3)ccc21`, the “activity change, negative = inhibition” value is reported as inactive: -14.9%. For `O=S(=O)(Nc1nc2n(n1)C(c1ccc(F)cc1)C=C(c1ccccc1)N2)c1ccccc1` (stereo not given), the “activity change, negative = inhibition” value was inactive: -5.74%. `Cc1ccc(-n2c(SCc3cccc(F)c3)nc3[nH]ncc3c2=O)cc1C` was tested, and the Potency was inconclusive: 25.1 µM [inhibitor, single point]. With `Cc1cccc(N2CCN(C(=O)CCc3nnc4n(CC(C)C)c(=O)c5ccccc5n34)CC2)c1C` the Potency was inconclusive: 31.6 µM [inhibitor, partial curve, poor fit]. With `O=C(CCS(=O)(=O)c1nc(-c2cccs2)cc(C(F)(F)F)n1)Nc1ccc(OC(F)(F)F)cc1` the Potency was inconclusive: 17.8 µM [inhibitor, partial curve]. For `Cc1nn2c(=O)cc(CN(C)c3ccccc3)nc2s1`, the Potency was inconclusive: 28.2 µM [inhibitor, single point]. In the case of `CC(C)(C)c1ccc(Cn2c(Cc3ccccc3)nc3ccccc32)cc1`, the Potency is reported as inconclusive: 28.2 µM [inhibitor, partial curve]. In the case of `COc1ccc(NC(=O)c2ccc(-c3ccc(-c4nnc(C)o4)cc3C)cc2)cc1N1CCN(C)CC1`, the “activity change, negative = inhibition” value is reported as inactive: 1.93%. In the case of `Cc1oc2ccc(O)c(CN(C)Cc3ccccc3)c2c1C(=O)Nc1ccccc1`, the “activity change, negative = inhibition” value is reported as inactive: -27.7%. For `COc1ccc(S(=O)(=O)N2CCCN(CC(=O)Nc3ccc(OC)cc3OC)CC2)cc1`, the Potency was inconclusive: 14.1 µM [inhibitor, partial curve, poor fit]. With `C=CC(=O)N1CCCC(n2nc(-c3ccc(Oc4ccccc4)cc3)c3c(N)ncnc32)C1` (stereo not given) the “activity change, negative = inhibition” value was inactive: -4.85%. With `Cc1cccc(C)c1OCCCn1c(CCNC(=O)C2CCCCC2)nc2ccccc21` the Potency was inconclusive: 35.5 µM [inhibitor, single point]. In the case of `CCOc1ccc(N(CC)S(=O)(=O)N2CCCC(C(=O)Nc3ccc(C(C)=O)cc3)C2)cc1` (stereo not given), the Potency is reported as inconclusive: 25.1 µM [inhibitor, partial curve, poor fit]. `COc1ccc(/C=C/c2nc(C#N)c(NCc3ccc(F)cc3)o2)cc1OC` was tested, and the Potency was inconclusive: 50.1 µM [inhibitor, single point]. In the case of `Cc1cc(OCCCS(C)(=O)=O)cc(C)c1-c1cccc(COc2ccc(C3=CC(=O)NS3=O)cc2)c1` (stereo not given), the Potency is reported as inconclusive: 39.8 µM [inhibitor, partial curve, poor fit]. In the case of `Fc1ccccc1Cc1cn2cc(-c3ccc(Cl)cc3)nc2s1`, the “activity change, negative = inhibition” value is reported as inactive: 0.0423%. With `Fc1ccc(-c2nn(-c3ccccc3Cl)c3c2cnc2ccccc23)cc1` the Potency was inconclusive: 4.47 µM [inhibitor, full curve, poor fit]. `O=C(O)CCNc1cc(N2CCc3ccccc3CC2)nc(-c2ccccn2)n1` was tested, and the Potency was inconclusive: 14.1 µM [activator, partial curve] and inconclusive: 6.93 µM [activator, partial curve, poor fit]. For `CCC(Oc1ccccc1)C(=O)Nc1cc(-c2cccc(C)c2)nn1-c1ccccc1` (stereo not given), the Potency was inconclusive: 50.1 µM [inhibitor, partial curve, poor fit]. For `O=C(COc1ccccc1F)Nc1ccc2nc(SCCOc3ccccc3)sc2c1`, the “activity change, negative = inhibition” value was inactive: 1.85%. In the case of `CC(C)c1ccc(Cn2c(COc3ccccc3)nc3ccccc32)cc1`, the Potency is reported as inconclusive: 35.5 µM [inhibitor, single point]. `COc1ccc(-n2c(-c3ccc(C)cc3)cc3c2CC(C)(C)CC3=O)cc1Cl` was tested, and the Potency was inconclusive: 35.5 µM [inhibitor, single point]. In the case of `CC(C)(C)OC(=O)N1CCC(c2c(C(=O)NCc3cccc(Cl)c3)cnn2-c2ccc(F)cc2)CC1`, the Potency is reported as inconclusive: 31.6 µM [inhibitor, single point]. `C/C=C/C=C/C=C/C(=O)O[C@@H]1C=C(CO)C(O)(C(=O)O)[C@@]2(C)CCCC(C)(C)[C@H]12` (stereo not given in full) was tested, and the “activity change, negative = inhibition” value was inactive: -1% [at 53.3 µM]. In the case of `O=C(CSc1nccn1Cc1ccccc1)NCc1ccco1`, the “activity change, negative = inhibition” value is reported as inactive: -11.7%. `CCOC(=O)c1ccc(N2C(=O)c3[nH]nc(-c4ccccc4)c3C2c2ccc(CC)cc2)cc1` (stereo not given) was tested, and the Potency was inconclusive: 35.5 µM [inhibitor, partial curve]. With `O=C(Cn1c(=O)n(Cc2nc(-c3ccccc3)no2)c(=O)c2ccccc21)Nc1cccc(C(F)(F)F)c1` the Potency was inconclusive: 50.1 µM [inhibitor, partial curve, poor fit]. `CCOc1ccccc1NC(=O)NCc1ccc2c(c1)CCN2C(=O)c1ccccc1` was tested, and the Potency was inconclusive: 39.8 µM [inhibitor, partial curve, poor fit]. In the case of `COC(=O)c1c(NC(=O)C(C)Oc2ccc(Cl)c(C)c2)sc(C)c1C` (stereo not given), the Potency is reported as inconclusive: 39.8 µM [inhibitor, partial curve, poor fit]. `CCOC(=O)c1ccc(N2C(=O)c3n[nH]c(-c4cccs4)c3C2c2ccc(OCC)cc2)cc1` (stereo not given) was tested, and the Potency was inconclusive: 14.1 µM [inhibitor, partial curve, poor fit]. With `COc1ccc(OC)c(CCNC(=O)CS(=O)(=O)Cc2nc(-c3cccc(Cl)c3)oc2C)c1` the “activity change, negative = inhibition” value was inactive: -11.8%.
